In the supplement of paper PMC9151546:
Single values are uncertain, as repeats are few or missing.

Assays:
CHO-K1 [1] = experiment: micronucleus frequency (% of nucleated events); higher = more micronuclei (genotoxic)
CHO-K1 [2] = experiment: hypodiploid nuclei frequency (% of nucleated events); higher = more hypodiploid events (aneugenic)
Procedure: (§1)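 Flow-cytometric in vitro micronucleus assay (Litron MicroFlow) in CHO-K1 cells in 96-well plates, 19 concentrations (4.5-200 µM, n=1 per concentration). Without S9, cells were exposed for 24 h and sampled at 48 h. With Aroclor 1254-induced rat liver S9, cells were exposed for 3-4 h and sampled at 27-28 h. Read-outs are %MN and %hypodiploid nuclei relative to nucleated events, and relative survival as the nuclei-to-bead ratio versus the 1% DMSO vehicle control (x100).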

CHO-K1 [3] = experiment: relative survival (nuclei to bead ratio vs DMSO control) (% of vehicle control); higher = more surviving cells
Procedure: as §1
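For hypodiploid nuclei frequency (% of nucleated events) in this document: hypodiploid nuclei gated on a flow cytometer with 488 nm excitation after SYTOX Green staining, cultures at 37 °C, positive controls vinblastine without S9 and cyclophosphamide with S9.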
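For micronucleus frequency (% of nucleated events) in this document: cells lysed with nuclei stained by SYTOX Green, then micronucleus-gated events counted against nucleated events by flow cytometry with 488 nm excitation.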
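For relative survival (nuclei to bead ratio vs DMSO control) in this document: Lysed-cell nuclei stained with SYTOX Green and counted against counting beads by flow cytometry at 488 nm excitation, with vinblastine (no S9) and cyclophosphamide (plus S9) as positive controls.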

CCCCCCCCCC [Decane]
Details	hypodiploid nuclei frequency, CHO-K1 [2] [%]	micronucleus frequency, CHO-K1 [1] [%]	relative survival, CHO-K1 [3]
concentration: 4.5 (µM), S9 metabolic activation: with S9, exposure time: 3-4 hours	0.2	1.24	97.2
concentration: 4.5 (µM), S9 metabolic activation: without S9, exposure time: 24 hours	0.34	1.02	92.2
concentration: 5.63 (µM), S9 metabolic activation: with S9, exposure time: 3-4 hours	0.2	1.16	114
concentration: 5.63 (µM), S9 metabolic activation: without S9, exposure time: 24 hours	0.64	1.26	77.8
concentration: 7.04 (µM), S9 metabolic activation: with S9, exposure time: 3-4 hours	0.3	1.8	103
concentration: 7.04 (µM), S9 metabolic activation: without S9, exposure time: 24 hours	0.72	1.78	91.1
concentration: 8.8 (µM), S9 metabolic activation: with S9, exposure time: 3-4 hours	0.3	1.38	91.4
concentration: 8.8 (µM), S9 metabolic activation: without S9, exposure time: 24 hours	0.5	1.2	100
concentration: 11 (µM), S9 metabolic activation: with S9, exposure time: 3-4 hours	0.28	1.8	124
concentration: 11 (µM), S9 metabolic activation: without S9, exposure time: 24 hours	0.52	1.44	83.9
concentration: 13.7 (µM), S9 metabolic activation: with S9, exposure time: 3-4 hours	0.16	1.46	103
concentration: 13.7 (µM), S9 metabolic activation: without S9, exposure time: 24 hours	0.38	1	80.8
concentration: 17.2 (µM), S9 metabolic activation: with S9, exposure time: 3-4 hours	0.38	1.78	86
concentration: 17.2 (µM), S9 metabolic activation: without S9, exposure time: 24 hours	0.44	1.42	98.6
concentration: 21.5 (µM), S9 metabolic activation: with S9, exposure time: 3-4 hours	0.36	1.46	92.6
concentration: 21.5 (µM), S9 metabolic activation: without S9, exposure time: 24 hours	0.48	1.32	82
concentration: 26.8 (µM), S9 metabolic activation: with S9, exposure time: 3-4 hours	0.32	2.3	104
concentration: 26.8 (µM), S9 metabolic activation: without S9, exposure time: 24 hours	0.5	1.1	97.7
concentration: 33.6 (µM), S9 metabolic activation: with S9, exposure time: 3-4 hours	0.54	1.7	124
concentration: 33.6 (µM), S9 metabolic activation: without S9, exposure time: 24 hours	0.32	1	73.3
concentration: 41.9 (µM), S9 metabolic activation: with S9, exposure time: 3-4 hours	0.18	1.24	101
concentration: 41.9 (µM), S9 metabolic activation: without S9, exposure time: 24 hours	0.34	1.22	97.7
concentration: 52.4 (µM), S9 metabolic activation: with S9, exposure time: 3-4 hours	0.2	1.54	105
concentration: 52.4 (µM), S9 metabolic activation: without S9, exposure time: 24 hours	0.34	0.94	74.6
concentration: 65.5 (µM), S9 metabolic activation: with S9, exposure time: 3-4 hours	0.2	1.46	95.7
concentration: 65.5 (µM), S9 metabolic activation: without S9, exposure time: 24 hours	0.44	1.44	87
concentration: 81.9 (µM), S9 metabolic activation: with S9, exposure time: 3-4 hours	0.2	1.36	107
concentration: 81.9 (µM), S9 metabolic activation: without S9, exposure time: 24 hours	0.46	1.76	75.6
concentration: 102 (µM), S9 metabolic activation: with S9, exposure time: 3-4 hours	0.3	1.62	89.3
concentration: 102 (µM), S9 metabolic activation: without S9, exposure time: 24 hours	0.72	1.42	66.7
concentration: 128 (µM), S9 metabolic activation: with S9, exposure time: 3-4 hours	0.32	1.48	83
concentration: 128 (µM), S9 metabolic activation: without S9, exposure time: 24 hours	0.6	1.16	99.5
concentration: 160 (µM), S9 metabolic activation: with S9, exposure time: 3-4 hours	0.2	1.28	105
concentration: 160 (µM), S9 metabolic activation: without S9, exposure time: 24 hours	0.74	1.92	86.3
concentration: 200 (µM), S9 metabolic activation: with S9, exposure time: 3-4 hours	0.28	2	102
concentration: 200 (µM), S9 metabolic activation: without S9, exposure time: 24 hours	0.9	1.44	86.6

ClC1=C(Cl)C(Cl)(Cl)C(Cl)=C1Cl [Hexachlorocyclopentadiene]
Details	hypodiploid nuclei frequency, CHO-K1 [2] [%]	micronucleus frequency, CHO-K1 [1] [%]	relative survival, CHO-K1 [3]
concentration: 4.5 (µM), S9 metabolic activation: with S9, exposure time: 3-4 hours	0.48	3.1	58.2
concentration: 4.5 (µM), S9 metabolic activation: without S9, exposure time: 24 hours	0.34	2.12	94.3
concentration: 5.63 (µM), S9 metabolic activation: with S9, exposure time: 3-4 hours	0.22	1.94	68.1
concentration: 5.63 (µM), S9 metabolic activation: without S9, exposure time: 24 hours	0.52	2.52	84.3
concentration: 7.04 (µM), S9 metabolic activation: with S9, exposure time: 3-4 hours	0.5	2.82	64.2
concentration: 7.04 (µM), S9 metabolic activation: without S9, exposure time: 24 hours	0.44	2.62	70.3
concentration: 8.8 (µM), S9 metabolic activation: with S9, exposure time: 3-4 hours	0.4	2.6	62.2
concentration: 8.8 (µM), S9 metabolic activation: without S9, exposure time: 24 hours	0.48	7.64	66
concentration: 11 (µM), S9 metabolic activation: with S9, exposure time: 3-4 hours	0.4	2.6	82.1
concentration: 11 (µM), S9 metabolic activation: without S9, exposure time: 24 hours	0.76	32.9	50.8
concentration: 13.7 (µM), S9 metabolic activation: with S9, exposure time: 3-4 hours	0.4	2.46	59.2
concentration: 17.2 (µM), S9 metabolic activation: with S9, exposure time: 3-4 hours	0.36	2.1	85.4
concentration: 21.5 (µM), S9 metabolic activation: with S9, exposure time: 3-4 hours	0.2	2.18	95.7
concentration: 26.8 (µM), S9 metabolic activation: with S9, exposure time: 3-4 hours	0.74	3.82	65.5
concentration: 33.6 (µM), S9 metabolic activation: with S9, exposure time: 3-4 hours	0.74	5.38	68.5
concentration: 41.9 (µM), S9 metabolic activation: with S9, exposure time: 3-4 hours	1.16	9.34	54.8
concentration: 52.4 (µM), S9 metabolic activation: with S9, exposure time: 3-4 hours	1.1	21.6	40.9
concentration: 65.5 (µM), S9 metabolic activation: with S9, exposure time: 3-4 hours	–	–	25.1
concentration: 81.9 (µM), S9 metabolic activation: without S9, exposure time: 24 hours	–	–	0.02
concentration: 102 (µM), S9 metabolic activation: without S9, exposure time: 24 hours	–	–	0.06
concentration: 200 (µM), S9 metabolic activation: with S9, exposure time: 3-4 hours	–	–	0.03
concentration: 200 (µM), S9 metabolic activation: without S9, exposure time: 24 hours	–	–	0.06

COc1cc(C=O)ccc1O [4-Hydroxy-3-methoxybenzaldehyde]
Details	hypodiploid nuclei frequency, CHO-K1 [2] [%]	micronucleus frequency, CHO-K1 [1] [%]	relative survival, CHO-K1 [3]
concentration: 4.5 (µM), S9 metabolic activation: with S9, exposure time: 3-4 hours	0.26	1.12	78.8
concentration: 4.5 (µM), S9 metabolic activation: without S9, exposure time: 24 hours	0.32	1.34	80.8
concentration: 5.63 (µM), S9 metabolic activation: with S9, exposure time: 3-4 hours	0.24	1.2	85.8
concentration: 5.63 (µM), S9 metabolic activation: without S9, exposure time: 24 hours	0.52	2.44	89.9
concentration: 7.04 (µM), S9 metabolic activation: with S9, exposure time: 3-4 hours	0.2	0.64	70.3
concentration: 7.04 (µM), S9 metabolic activation: without S9, exposure time: 24 hours	0.66	0.88	66.1
concentration: 8.8 (µM), S9 metabolic activation: with S9, exposure time: 3-4 hours	0.24	1.3	82.3
concentration: 8.8 (µM), S9 metabolic activation: without S9, exposure time: 24 hours	0.7	1.6	50.7
concentration: 11 (µM), S9 metabolic activation: with S9, exposure time: 3-4 hours	0.3	1.22	93.2
concentration: 11 (µM), S9 metabolic activation: without S9, exposure time: 24 hours	0.74	1.58	45
concentration: 13.7 (µM), S9 metabolic activation: with S9, exposure time: 3-4 hours	0.34	1.04	93
concentration: 13.7 (µM), S9 metabolic activation: without S9, exposure time: 24 hours	0.64	1.46	75.7
concentration: 17.2 (µM), S9 metabolic activation: with S9, exposure time: 3-4 hours	0.24	1.04	116
concentration: 17.2 (µM), S9 metabolic activation: without S9, exposure time: 24 hours	0.48	1.08	53.4
concentration: 21.5 (µM), S9 metabolic activation: with S9, exposure time: 3-4 hours	0.42	1	112
concentration: 21.5 (µM), S9 metabolic activation: without S9, exposure time: 24 hours	0.72	1.1	62.4
concentration: 26.8 (µM), S9 metabolic activation: with S9, exposure time: 3-4 hours	0.2	1.28	71.6
concentration: 26.8 (µM), S9 metabolic activation: without S9, exposure time: 24 hours	0.66	1.42	76
concentration: 33.6 (µM), S9 metabolic activation: with S9, exposure time: 3-4 hours	0.34	1.4	87.5
concentration: 33.6 (µM), S9 metabolic activation: without S9, exposure time: 24 hours	0.42	1.62	82.8
concentration: 41.9 (µM), S9 metabolic activation: with S9, exposure time: 3-4 hours	0.22	1.84	107
concentration: 41.9 (µM), S9 metabolic activation: without S9, exposure time: 24 hours	0.72	1.48	71.7
concentration: 52.4 (µM), S9 metabolic activation: with S9, exposure time: 3-4 hours	0.14	0.94	85.1
concentration: 52.4 (µM), S9 metabolic activation: without S9, exposure time: 24 hours	1.14	2.04	76.7
concentration: 65.5 (µM), S9 metabolic activation: with S9, exposure time: 3-4 hours	0.32	1.12	115
concentration: 65.5 (µM), S9 metabolic activation: without S9, exposure time: 24 hours	0.82	1.18	73.8
concentration: 81.9 (µM), S9 metabolic activation: with S9, exposure time: 3-4 hours	0.14	0.98	105
concentration: 81.9 (µM), S9 metabolic activation: without S9, exposure time: 24 hours	0.82	1.36	70.6
concentration: 102 (µM), S9 metabolic activation: with S9, exposure time: 3-4 hours	0.22	1.36	91.3
concentration: 102 (µM), S9 metabolic activation: without S9, exposure time: 24 hours	1.2	1.78	57.2
concentration: 128 (µM), S9 metabolic activation: with S9, exposure time: 3-4 hours	0.22	1.26	96.6
concentration: 128 (µM), S9 metabolic activation: without S9, exposure time: 24 hours	1.12	1.7	62.4
concentration: 160 (µM), S9 metabolic activation: with S9, exposure time: 3-4 hours	0.12	1.02	104
concentration: 160 (µM), S9 metabolic activation: without S9, exposure time: 24 hours	1.18	1.44	73.8
concentration: 200 (µM), S9 metabolic activation: with S9, exposure time: 3-4 hours	0.12	1.04	96.1
concentration: 200 (µM), S9 metabolic activation: without S9, exposure time: 24 hours	1.54	2.4	50.1
